The source of these data is the RNAGym collection of RNA variant scans (doi:10.1101/gad.245936.114).

B1: tRNA (parent)
chain: CUCUCGGUAGCCAAGUUGGUUUAAGGCGCAAGACUUUAAUUUAUCACUACGAAAUCUUGAGAUCGGGCGUUCGACUCGCCCCCGGGAGAUUUUUUCCUCGAGCAA

This sample is rich in variants without activity. A value given as a limit tells only on which side of the number the result lay.

In the data set the parent is B1. The experiment in a line: nonsense suppression (GFP-seq) (ratio to wild type); higher = more function; SUP4oc tRNA, yeast GFP reporter sort-seq. A digest of the protocol:
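Sorted GFP/RFP bins of yeast were each Illumina-sequenced with a phred ≥30 cutoff; the cells held a genome-integrated ochre-suppressor tRNA variant from a library with ~3% random mutations, a galactose-driven GFP ochre reporter, and RFP. Culture was in raffinose/galactose medium containing 80 mg/L adenine. Nonsense suppression, termed GFPSEQ, is the median GFP/RFP of the bins weighted by each variant's estimated cell share per bin, relative to the unmutated parent tRNA, for variants reaching ≥100 reads and ≥30 cells.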
On to U8G G28U A31C G67A A89U, for which the nonsense suppression was at most 0.026.

As for A9C A23C A74G, the nonsense suppression is at most 0.026.

For the variant U16C U20C C29A U70A, the nonsense suppression is at most 0.026.

Take A23C G61A C64U A87G: the nonsense suppression was at most 0.026.

In the case of U35A G78A C83A, the nonsense suppression was at most 0.026.

In the case of U16G U17C, the nonsense suppression turned out to be 1.05.

Turning to G66U C81G, the nonsense suppression is at most 0.026.

With A14U C29G A87U, the nonsense suppression was at most 0.026.

With A14U G15U A30G C83G, the nonsense suppression is at most 0.026.

As for A30U C64A, the nonsense suppression is at most 0.026.

Consider C29G G73C G78A, for which the nonsense suppression is at most 0.026.

Consider G18U G73A, for which the nonsense suppression is at most 0.026.

Turning to A9G C34G, the nonsense suppression was at most 0.026.

C12G C72A: the nonsense suppression is at most 0.026.

On to U8C G73A C81U, for which the nonsense suppression was at most 0.026.

Turning to G61C G88U, the nonsense suppression was 0.0792.

Take C3G C12U: the nonsense suppression is at most 0.026.

As to U55A G66C, the nonsense suppression was at most 0.026.

With U4G G7U C11A U58G, the nonsense suppression is at most 0.026.

Regarding A54G, the nonsense suppression is at most 0.026.

For G19C G28A, the nonsense suppression is at most 0.026.

With A31U A60U, the nonsense suppression stood at 0.647.

On to A9U C12G U76C C77G, for which the nonsense suppression was at most 0.026.

With U2A U57G G66A, the nonsense suppression is at most 0.026.

Consider C11G C72G C82U, for which the nonsense suppression is at most 0.026.

With U2C C34U G86C, the nonsense suppression was at most 0.026.

As to G18C G61A G84C, the nonsense suppression is at most 0.026.

G10C U21C A60C: the nonsense suppression is at most 0.026.

For G7U G26C A60C, the nonsense suppression was at most 0.026.

Turning to C1U U58G A87U A89G, the nonsense suppression is at most 0.026.

G28U A62C G69C: the nonsense suppression was at most 0.026.

For the variant G7C A9G C11A G61C, the nonsense suppression was at most 0.026.

As for G7U C34U A54C C56U, the nonsense suppression is at most 0.026.

Turning to C3G U35G, the nonsense suppression was at most 0.026.

On to G59A G67C, for which the nonsense suppression is at most 0.026.

For A14G C77U, the nonsense suppression was at most 0.026.

With U2A G18C C27G G32C C68U, the nonsense suppression is at most 0.026.

For U8G A9C U17C G66U, the nonsense suppression is at most 0.026.

Take U2G U17A G18A U21A A74G: the nonsense suppression is at most 0.026.

In the case of A9U G10A U55A, the nonsense suppression is at most 0.026.

Regarding C56G A74G U76C C77A, the nonsense suppression was at most 0.026.

For the variant C12U A14G A33G U57C, the nonsense suppression was at most 0.026.

Consider C1A G65C G85U, for which the nonsense suppression was at most 0.026.

Turning to C1U A9U G15C U16G, the nonsense suppression is at most 0.026.

As to C27U U76C, the nonsense suppression is at most 0.026.

As to U76A, the nonsense suppression was at most 0.026.

For the variant C1G U4C A24G U55A, the nonsense suppression is at most 0.026.

Take C3U U4A: the nonsense suppression was at most 0.026.

On to C34G A74G, for which the nonsense suppression was at most 0.026.

Regarding U17G G18A U21A, the nonsense suppression was at most 0.026.

As for U8A G10A G65A G85U, the nonsense suppression was at most 0.026.

For the variant G66A C82G, the nonsense suppression was at most 0.026.

Regarding A13U U21A A60G, the nonsense suppression is at most 0.026.

Take C3A C11G A23G C79U: the nonsense suppression is at most 0.026.

As for C1U G66C A89G, the nonsense suppression was at most 0.026.

For A9C C29A, the nonsense suppression was at most 0.026.

As to U35G A60C, the nonsense suppression was at most 0.026.

Turning to A23U C34G, the nonsense suppression is at most 0.026.

Take U20G U21C G26A: the nonsense suppression was at most 0.026.

In the case of C1U A14C, the nonsense suppression was at most 0.026.

C1A G10U A13U U16A: the nonsense suppression was at most 0.026.

With C1A U35G U57C C82U A87G, the nonsense suppression is at most 0.026.

Consider C1U A9U A24C A30U A33G, for which the nonsense suppression is at most 0.026.

On to U58A C83G, for which the nonsense suppression was at most 0.026.

As for G32A G59U U70A, the nonsense suppression was at most 0.026.

With C72U G73C C79G, the nonsense suppression is at most 0.026.

As for G26U U58G G61A C75G, the nonsense suppression was at most 0.026.

On to U21G A23C A30U, for which the nonsense suppression is at most 0.026.

On to U55C U57C, for which the nonsense suppression is 0.026.

In the case of U35G G69A, the nonsense suppression was at most 0.026.

Consider G6A A31G G66A C80G, for which the nonsense suppression was at most 0.026.

Take C3A U4A C34A G59C U76G: the nonsense suppression is at most 0.026.

Consider C5U C29U C34U A87C, for which the nonsense suppression was at most 0.026.

For the variant U2G G7U U58G C83U, the nonsense suppression was at most 0.026.

For the variant A23C C29A G32C A33G G61C, the nonsense suppression was at most 0.026.

In the case of G7C G67U C80U, the nonsense suppression is at most 0.026.

Turning to A54U A62G, the nonsense suppression amounted to 0.0321.

In the case of A13C U17G, the nonsense suppression amounted to 0.958.

On to C34U U55G C56A C75U C81A, for which the nonsense suppression was at most 0.026.

With U8C A23U, the nonsense suppression is at most 0.026.

On to U21G A30G A89G, for which the nonsense suppression was at most 0.026.

On to G10U C68A U76C, for which the nonsense suppression was at most 0.026.

As for G10U C56A, the nonsense suppression was at most 0.026.

C68A G78A: the nonsense suppression is at most 0.026.

As for U2A U55G G78U, the nonsense suppression is at most 0.026.

As for G7C A60U, the nonsense suppression was at most 0.026.

Consider U21A U35A C81G G88A, for which the nonsense suppression was at most 0.026.

Turning to G66C C68A, the nonsense suppression was at most 0.026.

For the variant U22C G67C, the nonsense suppression is at most 0.026.

For the variant C27G G67A, the nonsense suppression is at most 0.026.

Take C27U G32U A74C: the nonsense suppression is at most 0.026.

With U16C A62C C72U, the nonsense suppression was at most 0.026.

Consider C11U G26U G88U, for which the nonsense suppression was at most 0.026.

For the variant C3U C5U, the nonsense suppression stood at 0.158.

For U2A G18U G67C, the nonsense suppression is at most 0.026.

Turning to U2C C12G A31U U35G, the nonsense suppression is at most 0.026.

Regarding U70A A89G, the nonsense suppression is at most 0.026.

Regarding A23U G25A U35G, the nonsense suppression is at most 0.026.

Regarding C1U A23U C72G G84C A89G, the nonsense suppression was at most 0.026.

With G18A U20A A31U U57A A62U G67C, the nonsense suppression was at most 0.026.

As for A23C G67U C77U, the nonsense suppression is at most 0.026.

For U4G C79G G85A, the nonsense suppression is at most 0.026.

Take C11G U16A A31U: the nonsense suppression was at most 0.026.

As to A33U A60C, the nonsense suppression is at most 0.026.

On to U8C A31U C34U G61A C79U, for which the nonsense suppression is at most 0.026.

For A60C A89C, the nonsense suppression is at most 0.026.

With U4G U55C G61A, the nonsense suppression was at most 0.026.

C27U A33C U71G: the nonsense suppression was at most 0.026.

As for U8G G26A U70G U71A U76A, the nonsense suppression was at most 0.026.

For the variant A14U U16C U70A C80G, the nonsense suppression is at most 0.026.

Take C29A A54U G61C: the nonsense suppression is at most 0.026.

Take C5A A23U: the nonsense suppression was at most 0.026.

C3U A54C: the nonsense suppression was found to be 0.079.

A23C G26U A62U U63C: the nonsense suppression was at most 0.026.

On to G7C G10U G18A, for which the nonsense suppression was at most 0.026.

As for A24U A31G, the nonsense suppression was 0.229.

On to G7U U8C, for which the nonsense suppression was at most 0.026.

For G65C G66A C81U, the nonsense suppression is at most 0.026.

For C3U C11U A14G U22C U35C G61U, the nonsense suppression is at most 0.026.

G7U G26U C80A: the nonsense suppression is at most 0.026.

For U21C G61A, the nonsense suppression is 0.881.

For the variant U22A A31U C81A, the nonsense suppression is at most 0.026.

With G10U G78A, the nonsense suppression is at most 0.026.

Take C1G G61C G84A: the nonsense suppression is at most 0.026.

On to U70C, for which the nonsense suppression is at most 0.026.

Turning to G61U G66C, the nonsense suppression is at most 0.026.

In the case of C1G G32C C72G G73C A87U, the nonsense suppression was at most 0.026.

Consider C1A U2A U4A A30C C75U, for which the nonsense suppression is at most 0.026.

For G19A A30U C56A C80A G85A, the nonsense suppression was at most 0.026.

In the case of G6A A14G A62U A74C G85C, the nonsense suppression is at most 0.026.

Turning to C34U U35C, the nonsense suppression was at most 0.026.

For C82A G84U, the nonsense suppression was at most 0.026.

In the case of U57C G61A C64A G67A G88U, the nonsense suppression was at most 0.026.

Take C68U C77A: the nonsense suppression was at most 0.026.

For C64U C68G, the nonsense suppression was at most 0.026.

Regarding G7C G18C, the nonsense suppression is at most 0.026.

For G6C G7C, the nonsense suppression is at most 0.026.

For the variant U2A U58G G59A G88C, the nonsense suppression is at most 0.026.

Take G25U G67C C77G G78C: the nonsense suppression is at most 0.026.

For the variant G10U A87G, the nonsense suppression was at most 0.026.

Take C5U G78C: the nonsense suppression was at most 0.026.

As to G6A U22C U57C G67A U70C, the nonsense suppression is at most 0.026.

Consider A30U C34A A87U, for which the nonsense suppression is at most 0.026.

On to U63G U71C, for which the nonsense suppression was found to be 0.028.

As to A14G G18C G28U C80G, the nonsense suppression was at most 0.026.

On to U16C U55C G78C G88A, for which the nonsense suppression was at most 0.026.

Regarding A13C A14C A24U G28C, the nonsense suppression is at most 0.026.

As to C11G G19A U35G A89U, the nonsense suppression was at most 0.026.

On to U8C A14U C75U, for which the nonsense suppression was at most 0.026.

C11U U57C: the nonsense suppression is at most 0.026.

On to C3G A23G U70C, for which the nonsense suppression is at most 0.026.

Turning to U57C A62U G84A, the nonsense suppression was at most 0.026.

In the case of U4G U8A, the nonsense suppression was at most 0.026.

As for A62C G65U C75G G85U, the nonsense suppression is at most 0.026.

Turning to C56A G73A G78A, the nonsense suppression was at most 0.026.

For U8A A60C, the nonsense suppression is at most 0.026.

For the variant C12A G19U U35C, the nonsense suppression was at most 0.026.

Turning to U21A A23C C80A, the nonsense suppression is at most 0.026.

Regarding G6U U8G C77G A89C, the nonsense suppression is at most 0.026.

Regarding G7A A9G C27U, the nonsense suppression was at most 0.026.

Regarding G66A G67A, the nonsense suppression is at most 0.026.

For C27G U63A C75U, the nonsense suppression was at most 0.026.

On to G19A A33U C68G C79A G88U, for which the nonsense suppression was at most 0.026.

G26A C68A: the nonsense suppression was at most 0.026.

For the variant U4C U63C G67A, the nonsense suppression was at most 0.026.

Regarding G65U G69U, the nonsense suppression was at most 0.026.

In the case of C1U C5G G28A U35A C80G, the nonsense suppression was at most 0.026.
